{"source": "paper PMC4336329", "about": "(PLoS ONE, 2015)", "note": "Screen size: about 310,000 compounds; about 14,000 (4.5%) showed an effect of 50% or more. The effect is printed as a negative number. The list shows a part of the results.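 Note: peak tail current of the secondary pulse compared with the same well before compound.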"}
{"target": "human ether-à-go-go-related gene (hERG) potassium channel (human, UniProt Q12809)", "sequence (Q12809 whole entry, looked up)": "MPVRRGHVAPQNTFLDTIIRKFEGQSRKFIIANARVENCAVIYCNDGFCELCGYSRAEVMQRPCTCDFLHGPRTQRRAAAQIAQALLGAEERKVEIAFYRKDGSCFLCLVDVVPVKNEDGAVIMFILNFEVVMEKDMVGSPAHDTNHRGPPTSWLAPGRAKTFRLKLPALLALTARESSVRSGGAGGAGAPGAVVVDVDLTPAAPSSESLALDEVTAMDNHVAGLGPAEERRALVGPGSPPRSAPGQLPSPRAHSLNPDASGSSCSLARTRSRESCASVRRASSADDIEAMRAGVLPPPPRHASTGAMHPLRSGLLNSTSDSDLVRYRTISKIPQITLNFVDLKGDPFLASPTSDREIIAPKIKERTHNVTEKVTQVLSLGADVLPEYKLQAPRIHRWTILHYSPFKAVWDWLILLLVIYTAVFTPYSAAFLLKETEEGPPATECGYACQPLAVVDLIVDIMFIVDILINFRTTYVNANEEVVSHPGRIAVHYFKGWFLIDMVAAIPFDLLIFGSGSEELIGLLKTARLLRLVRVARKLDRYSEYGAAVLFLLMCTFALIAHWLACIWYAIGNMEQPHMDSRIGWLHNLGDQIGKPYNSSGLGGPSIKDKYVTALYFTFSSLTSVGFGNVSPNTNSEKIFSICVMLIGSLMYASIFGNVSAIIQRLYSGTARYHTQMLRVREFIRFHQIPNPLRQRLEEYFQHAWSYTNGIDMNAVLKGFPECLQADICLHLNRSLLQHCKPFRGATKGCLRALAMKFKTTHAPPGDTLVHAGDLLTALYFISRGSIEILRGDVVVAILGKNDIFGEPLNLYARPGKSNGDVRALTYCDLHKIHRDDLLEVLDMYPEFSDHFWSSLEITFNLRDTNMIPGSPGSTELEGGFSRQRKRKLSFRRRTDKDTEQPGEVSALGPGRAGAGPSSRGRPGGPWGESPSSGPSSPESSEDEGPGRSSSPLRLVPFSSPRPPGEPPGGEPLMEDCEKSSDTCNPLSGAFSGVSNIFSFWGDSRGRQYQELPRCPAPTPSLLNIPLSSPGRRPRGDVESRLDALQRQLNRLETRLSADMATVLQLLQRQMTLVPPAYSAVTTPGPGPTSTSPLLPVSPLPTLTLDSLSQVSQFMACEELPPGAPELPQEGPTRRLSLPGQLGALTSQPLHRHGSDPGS", "assay": "primary screen, population patch clamp on CHO cells stably expressing hERG", "units": {"hERG current change (%, negative = inhibition) at 10uM": "%"}}
{"smiles": "Cc1cccc(OC(C)C(=O)N/N=C\\c2ccncc2)c1", "note": "(stereo not drawn)", "hERG current change (%, negative = inhibition) at 10uM": -6.27}
{"smiles": "CCC(C)NC(=O)CCc1c(C)nc2nc(-c3cc(OC)cc(OC)c3)nn2c1C", "note": "(stereo not drawn)", "hERG current change (%, negative = inhibition) at 10uM": -26.2}
{"smiles": "Cc1cccc(C)c1NC(=O)NN1C(C)CCCC1C", "note": "(stereo not drawn)", "hERG current change (%, negative = inhibition) at 10uM": 22.3}
{"smiles": "Cc1ccccc1NC(=O)Nc1ccc2c(c1)OCO2", "hERG current change (%, negative = inhibition) at 10uM": 1.01}
{"smiles": "O=C(Nc1nc(-c2cccc([N+](=O)[O-])c2)cs1)C(c1ccccc1)c1ccccc1", "hERG current change (%, negative = inhibition) at 10uM": 12}
{"smiles": "NC(=O)c1ccc(Oc2ccc(-c3nnco3)cc2)c([N+](=O)[O-])c1", "hERG current change (%, negative = inhibition) at 10uM": 1.84}
{"smiles": "CCN1CCN(C(=O)c2cc(=O)c3cc(C)ccc3o2)CC1", "hERG current change (%, negative = inhibition) at 10uM": -21.8}
{"smiles": "COc1ccc2nc(N(Cc3ccccc3)C(=O)CCNC(C)=O)sc2c1", "hERG current change (%, negative = inhibition) at 10uM": -8.54}
{"smiles": "COc1ccccc1Nc1nc2c(C)cccc2cc1C#N", "hERG current change (%, negative = inhibition) at 10uM": -2.92}
{"smiles": "Cc1ccc(S(=O)(=O)c2cc3c(=O)n4cccc(C)c4nc3n(CC3CCCO3)c2=N)cc1C", "note": "(stereo not drawn)", "hERG current change (%, negative = inhibition) at 10uM": 2.35}
{"smiles": "COc1cccc(C(=O)NN2CC(O)=C(c3nc4ccccc4s3)C2=N)c1", "hERG current change (%, negative = inhibition) at 10uM": 14.7}
{"smiles": "COc1ccc(/C=N/NS(=O)(=O)c2ccc(C)cc2)cc1OC(=O)c1ccccc1", "hERG current change (%, negative = inhibition) at 10uM": -8.72}
{"smiles": "Nc1ccc2nn(-c3ccc(Cl)cc3)nc2c1", "hERG current change (%, negative = inhibition) at 10uM": -1.58}
{"smiles": "C/C(=N\\NC(=O)c1cccc(S(=O)(=O)N2CCOCC2)c1)c1ccc(OCC(=O)N(C)C)cc1", "hERG current change (%, negative = inhibition) at 10uM": 21.3}
{"smiles": "CCCN(CC(=O)Nc1ccccc1OC)C(=O)CCCN1C(=O)c2ccccc2C1=O", "hERG current change (%, negative = inhibition) at 10uM": -17.5}
{"smiles": "CCOC(=O)Nc1ccc2c(COC(=O)CNS(=O)(=O)c3cccc(Br)c3)cc(=O)oc2c1", "hERG current change (%, negative = inhibition) at 10uM": 5.51}
{"smiles": "CCCn1c(CCc2ccccc2)n[nH]c1=S", "hERG current change (%, negative = inhibition) at 10uM": 5.81}
{"smiles": "CCOc1ccc(NC(=O)CN2C(=O)NC(C)(c3ccc(OC(F)F)cc3)C2=O)cc1", "note": "(stereo not drawn)", "hERG current change (%, negative = inhibition) at 10uM": -16.1}
{"smiles": "CN(C)c1ccc(/C=N/NC(=O)CN(c2cccc(Cl)c2)S(C)(=O)=O)cc1Br", "hERG current change (%, negative = inhibition) at 10uM": 12.4}
{"smiles": "O=C1CN(C(=O)CNC(=O)c2ccc(Cl)cc2Cl)CCN1", "hERG current change (%, negative = inhibition) at 10uM": 9.86}
{"smiles": "Cc1oc(-c2ccccc2Cl)nc1CS(=O)CC(=O)NCc1ccc(Cl)cc1", "note": "(stereo not drawn)", "hERG current change (%, negative = inhibition) at 10uM": -11.2}
{"smiles": "C=CCn1c(=S)[nH]c2cc(C(=O)Nc3ccc(F)cc3)ccc2c1=O", "hERG current change (%, negative = inhibition) at 10uM": 6.54}
{"smiles": "Cc1cc(NC(=O)CCN2CCN(C)CC2)ccc1Br.Cl", "hERG current change (%, negative = inhibition) at 10uM": -7.85}
{"smiles": "O=C(Cn1cnc2sc(-c3ccccc3)cc2c1=O)NCc1ccccc1", "hERG current change (%, negative = inhibition) at 10uM": 3.58}
{"smiles": "CCOC(=O)c1cc(C(=O)Nc2sc3c(c2C#N)CCCC3)nn1C", "hERG current change (%, negative = inhibition) at 10uM": 12.4}
{"smiles": "CCOc1ccc(/C=N/NC(=O)c2nnn(-c3nonc3N)c2CN2CCC(C)CC2)cc1", "hERG current change (%, negative = inhibition) at 10uM": -7.36}
{"smiles": "Cc1cccc(C(=O)N(Cc2nc3ccccc3c(=O)[nH]2)C2CCCCC2)c1", "hERG current change (%, negative = inhibition) at 10uM": -35.1}
{"smiles": "N#Cc1cn(CC(=O)N2CCCC2)c2ccccc12", "hERG current change (%, negative = inhibition) at 10uM": 8.6}
{"smiles": "O=C(c1ccccc1)c1nnc(-c2ccncc2)o1", "hERG current change (%, negative = inhibition) at 10uM": -1.78}
{"smiles": "COC(=O)c1ccc(COc2ccc(/C=N/O)cc2OC)o1", "hERG current change (%, negative = inhibition) at 10uM": -29.5}
{"smiles": "CSCCC(NC(=O)COc1ccccc1)C(=O)OCCOc1ccc(Br)cc1", "note": "(stereo not drawn)", "hERG current change (%, negative = inhibition) at 10uM": -9.76}
{"smiles": "CCCCC1=CC2=C(c3ccco3)C(=O)C(C)(OC(=O)c3ccc(OC)cc3)C(=O)C2=CN1c1ccc(OC)cc1", "note": "(stereo not drawn)", "hERG current change (%, negative = inhibition) at 10uM": 0.413}
{"smiles": "COc1ccc(CNCc2cccn2C)cc1.Cl", "hERG current change (%, negative = inhibition) at 10uM": -4.97}
{"smiles": "COc1ccc(CCNC(=S)N2CCN(S(=O)(=O)c3ccc(F)cc3)CC2)cc1", "hERG current change (%, negative = inhibition) at 10uM": -3.29}
{"smiles": "Cc1ccc2cc(/C=C3\\N=C(c4ccccc4)OC3=O)c(N3CCOCC3)nc2c1", "hERG current change (%, negative = inhibition) at 10uM": 11.6}
{"smiles": "COc1ccc(C(=O)NC2CC2)cc1OC1CCN(Cc2ccc(F)cc2F)CC1", "hERG current change (%, negative = inhibition) at 10uM": -81.5}
{"smiles": "CCC(Oc1ccc(Cl)cc1)C(=O)N1CC(=O)Nc2ccccc21", "note": "(stereo not drawn)", "hERG current change (%, negative = inhibition) at 10uM": -0.0578}
{"smiles": "CS(=O)(=O)N1CCC(NC(=O)Cc2ccccc2)CC1", "hERG current change (%, negative = inhibition) at 10uM": 14.9}
{"smiles": "COc1ccc(C2(c3ccc(OC)cc3)NC(=O)N(CC(=O)NCC(C)c3ccccc3)C2=O)cc1", "note": "(stereo not drawn)", "hERG current change (%, negative = inhibition) at 10uM": 9.02}
{"smiles": "COc1cccc(C(c2sc3nc(C)nn3c2O)N2CCN(c3ccccc3F)CC2)c1", "note": "(stereo not drawn)", "hERG current change (%, negative = inhibition) at 10uM": -14.9}
{"smiles": "CCOC(=O)N1CCN(c2nc3ccccn3c(=O)c2C=O)CC1", "hERG current change (%, negative = inhibition) at 10uM": 8.85}
{"smiles": "O=C(O)C1CCCN(C(=O)c2cccc3ccccc23)C1", "note": "(stereo not drawn)", "hERG current change (%, negative = inhibition) at 10uM": 6.76}
{"smiles": "CC(=O)c1cc(CN2CCC(n3nccc3NC(=O)c3ccccc3)CC2)cs1", "hERG current change (%, negative = inhibition) at 10uM": -10.9}
{"smiles": "CC(C)(C)NS(=O)(=O)c1ccc(C(=O)Nc2ccc3c(c2)OCO3)cc1", "hERG current change (%, negative = inhibition) at 10uM": 2.59}
{"smiles": "CCN(CC(=O)NCc1cccs1)C(=O)/C=C/c1cccc(OC)c1OC", "hERG current change (%, negative = inhibition) at 10uM": -6.85}
{"smiles": "COc1ccc(NC(=O)CSc2ncnc3c2cnn3Cc2ccccc2)cc1OC", "hERG current change (%, negative = inhibition) at 10uM": 23.1}
{"smiles": "COc1ccccc1Cn1c(CO)nc2ccccc21", "hERG current change (%, negative = inhibition) at 10uM": -0.932}
{"smiles": "COc1ccc(C(C(=O)NC(C)(C)C)N(C(=O)CNC(=O)c2cccs2)c2ccc(C(C)C)cc2)cc1OC", "note": "(stereo not drawn)", "hERG current change (%, negative = inhibition) at 10uM": -7.95}
{"smiles": "O=C(NC1=NCCS1)C1CC(=O)N(c2ccc(F)cc2)C1", "note": "(stereo not drawn)", "hERG current change (%, negative = inhibition) at 10uM": 9.9}
{"smiles": "Cc1ccc(-n2nc3c(c2NC(=O)c2ccc4c(c2)OCO4)CS(=O)(=O)C3)cc1", "hERG current change (%, negative = inhibition) at 10uM": -5.49}
{"smiles": "CN(CCOc1ccccc1)C(=O)CCc1nc2sc3c(c2c(=O)[nH]1)CCCC3", "hERG current change (%, negative = inhibition) at 10uM": 15.9}
{"smiles": "O=C(/C=C/c1ccc(F)cc1)NC(=S)Nc1ccccc1C(=O)NC1CCCCC1", "hERG current change (%, negative = inhibition) at 10uM": 2.56}
{"smiles": "Cc1ccc(Cl)cc1N1CCN(C(=O)CCS(=O)(=O)c2ccc3c(c2)NC(=O)CO3)CC1", "hERG current change (%, negative = inhibition) at 10uM": -10.9}
{"smiles": "CNC(=O)CCCCC(=O)N/N=C/c1ccc(Cl)cc1Cl", "hERG current change (%, negative = inhibition) at 10uM": -11.3}
